Some of the results follow.
What was measured:
Test in all cases: glycan array binding signal (z-score within array); higher = stronger binding
Settings in all cases: glycan notation: IUPAC condensed, linker removed
[1] = biological target: Neu5Ac(a2-3)Gal(b1-4)[Fuc(a1-3)]GlcNAc(b1-3)Gal(b1-4)Glc
Procedure, shortened: (§1)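 Glycan array data came from 3228 arrays in the Consortium for Functional Glycomics database, and only arrays with an available protein sequence were kept. Glycan names were put into IUPAC-condensed notation, and columns mapping to the same glycan were averaged. The binding signal is a within-array Z-score, averaged across arrays of one protein sequence run at different concentrations or buffers and across linkers. A negative Z-score can be read as non-binding.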

[2] = biological target: Neu5Ac(a2-3)Gal(b1-4)[Fuc(a1-3)]GlcNAc(b1-3)Gal(b1-4)[Fuc(a1-3)]GlcNAc(b1-3)Gal(b1-4)Glc
Procedure, shortened: as §1

[3] = biological target: Neu5Ac(a2-3)Gal(b1-4)[Fuc(a1-3)]GlcNAc6S(b1-3)Gal(b1-4)Glc
Procedure, shortened: as §1

[4] = biological target: Neu5Ac(a2-3)Gal(b1-4)[Fuc(a1-3)]GlcNAc6S(b1-3)Gal6S(b1-3)GlcNAc6S
Procedure, shortened: as §1

[5] = biological target: Neu5Ac(a2-3)Gal6S(b1-4)[Fuc(a1-3)]GlcNAc(b1-3)Gal(b1-4)Glc
Procedure, shortened: as §1

[6] = biological target: Neu5Ac(a2-3)Gal6S(b1-4)[Fuc(a1-3)]GlcNAc6S(b1-3)Gal(b1-4)Glc
Procedure, shortened: as §1

[7] = biological target: Neu5Ac(a2-3)[GalNAc(b1-4)]Gal(b1-3)GalNAc(b1-4)[Neu5Ac(a2-3)]Gal(b1-4)Glc
Procedure, shortened: as §1

[8] = biological target: Neu5Ac(a2-3)[GalNAc(b1-4)]Gal(b1-4)Glc
Procedure, shortened: as §1

[9] = biological target: Neu5Ac(a2-6)Gal(b1-3)GlcNAc(b1-3)[Fuc(a1-3)[Gal(b1-4)]GlcNAc(b1-6)]Gal(b1-4)Glc
Procedure, shortened: as §1

[10] = biological target: Neu5Ac(a2-6)Gal(b1-3)GlcNAc(b1-3)[Gal(b1-4)GlcNAc(b1-6)]Gal(b1-4)Glc
Procedure, shortened: as §1

[11] = biological target: Neu5Ac(a2-6)Gal(b1-4)Glc
Procedure, shortened: as §1

[12] = biological target: Neu5Ac(a2-6)Gal(b1-4)GlcNAc
Procedure, shortened: as §1

[13] = biological target: Neu5Ac(a2-6)Gal(b1-4)GlcNAc(b1-2)Man(a1-3)[Neu5Ac(a2-6)Gal(b1-4)GlcNAc(b1-2)Man(a1-6)]Man(b1-4)GlcNAc(b1-4)GlcNAc
Procedure, shortened: as §1

[14] = biological target: Neu5Ac(a2-6)Gal(b1-4)GlcNAc(b1-2)Man(a1-3)[Neu5Gc(a2-6)Gal(b1-4)GlcNAc(b1-2)Man(a1-6)]Man(b1-4)GlcNAc(b1-4)GlcNAc
Procedure, shortened: as §1

[15] = biological target: Neu5Ac(a2-6)Gal(b1-4)GlcNAc(b1-2)[Neu5Ac(a2-3)Gal(b1-4)GlcNAc(b1-4)]Man(a1-3)[Neu5Ac(a2-3)Gal(b1-4)GlcNAc(b1-2)Man(a1-6)]Man(b1-4)GlcNAc(b1-4)GlcNAc
Procedure, shortened: as §1

[16] = biological target: Neu5Ac(a2-6)Gal(b1-4)GlcNAc(b1-3)Gal(b1-4)Glc
Procedure, shortened: as §1

[17] = biological target: Neu5Ac(a2-6)Gal(b1-4)GlcNAc(b1-3)[Neu5Ac(a2-6)Gal(b1-4)GlcNAc(b1-6)]Gal(b1-4)Glc
Procedure, shortened: as §1

[18] = biological target: Neu5Ac(a2-6)Gal(b1-4)GlcNAc(b1-6)[Gal(b1-3)GlcNAc(b1-3)]Gal(b1-4)Glc
Procedure, shortened: as §1

[19] = biological target: Neu5Ac(a2-6)Gal(b1-4)[Fuc(a1-3)]GlcNAc(b1-3)Gal(b1-4)Glc
Procedure, shortened: as §1

[20] = biological target: Neu5Ac(a2-8)Neu5Ac
Procedure, shortened: as §1

[21] = biological target: Neu5Ac(a2-8)Neu5Ac(a2-3)Gal(b1-3)GalNAc(b1-4)[Neu5Ac(a2-3)]Gal(b1-4)Glc
Procedure, shortened: as §1

[22] = biological target: Neu5Ac(a2-8)Neu5Ac(a2-3)Gal(b1-3)GalNAc(b1-4)[Neu5Ac(a2-8)Neu5Ac(a2-3)]Gal(b1-4)Glc
Procedure, shortened: as §1

[23] = biological target: Neu5Ac(a2-8)Neu5Ac(a2-3)Gal(b1-4)Glc
Procedure, shortened: as §1

[24] = biological target: Neu5Ac(a2-8)Neu5Ac(a2-3)[Gal(b1-3)GalNAc(b1-4)]Gal(b1-4)Glc
Procedure, shortened: as §1

[25] = biological target: Neu5Ac(a2-8)Neu5Ac(a2-3)[GalNAc(b1-4)]Gal(b1-4)Glc
Procedure, shortened: as §1

[26] = biological target: Neu5Ac(a2-8)Neu5Ac(a2-8)Neu5Ac
Procedure, shortened: as §1

[27] = biological target: Neu5Ac(a2-8)Neu5Ac(a2-8)Neu5Ac(a2-8)Neu5Ac
Procedure, shortened: as §1

[28] = biological target: Neu5Ac(a2-8)Neu5Ac(a2-8)Neu5Ac(a2-8)Neu5Ac(a2-8)Neu5Ac
Procedure, shortened: as §1

[29] = biological target: Neu5Ac(a2-8)Neu5Ac(a2-8)Neu5Ac(a2-8)Neu5Ac(a2-8)Neu5Ac(a2-8)Neu5Ac
Procedure, shortened: as §1

[30] = biological target: Neu5Ac(a2-8)Neu5Ac(a2-8)Neu5Ac(a2-8)Neu5Ac(a2-8)Neu5Ac(a2-8)Neu5Ac(a2-8)Neu5Ac
Procedure, shortened: as §1

[31] = biological target: Neu5Ac(a2-8)Neu5Ac(a2-8)Neu5Ac(a2-8)Neu5Ac(a2-8)Neu5Ac(a2-8)Neu5Ac(a2-8)Neu5Ac(a2-8)Neu5Ac
Procedure, shortened: as §1

[32] = biological target: Neu5Ac(a2-8)Neu5Ac(a2-8)Neu5Ac(a2-8)Neu5Ac(a2-8)Neu5Ac(a2-8)Neu5Ac(a2-8)Neu5Ac(a2-8)Neu5Ac(a2-8)Neu5Ac
Procedure, shortened: as §1

[33] = biological target: Neu5Ac(a2-8)Neu5Ac(a2-8)Neu5Ac(a2-8)Neu5Ac(a2-8)Neu5Ac(a2-8)Neu5Ac(a2-8)Neu5Ac(a2-8)Neu5Ac(a2-8)Neu5Ac(a2-8)Neu5Ac
Procedure, shortened: as §1

[34] = biological target: Neu5Ac(a2-8)Neu5Ac(a2-8)Neu5Ac(a2-8)Neu5Ac(a2-8)Neu5Ac(a2-8)Neu5Ac(a2-8)Neu5Ac(a2-8)Neu5Ac(a2-8)Neu5Ac(a2-8)Neu5Ac(a2-8)Neu5Ac
Procedure, shortened: as §1

[35] = biological target: Neu5Ac(b2-3)Gal(b1-4)Glc
Procedure, shortened: as §1

[36] = biological target: Neu5Ac(b2-6)Gal(b1-4)Glc
Procedure, shortened: as §1

[37] = biological target: Neu5Ac9Ac(a2-6)Gal(b1-4)GlcNAc
Procedure, shortened: as §1

[38] = biological target: Neu5Gc(a2-3)Gal(b1-4)Glc
Procedure, shortened: as §1

[39] = biological target: Neu5Gc(a2-3)[GalNAc(b1-4)]Gal
Procedure, shortened: as §1

[40] = biological target: Neu5Gc(a2-6)Gal(b1-4)GlcNAc(b1-2)Man(a1-3)[Neu5Gc(a2-6)Gal(b1-4)GlcNAc(b1-2)Man(a1-6)]Man(b1-4)GlcNAc(b1-4)GlcNAc
Procedure, shortened: as §1

[41] = biological target: Xyl(a1-6)Glc(b1-4)[Xyl(a1-6)]Glc(b1-4)[Xyl(a1-6)]Glc(b1-4)Glc
Procedure, shortened: as §1

[42] = biological target: Xyl(b1-2)[Man(a1-3)][Man(a1-6)]Man(b1-4)GlcNAc(b1-4)GlcNAc
Procedure, shortened: as §1

[43] = biological target: Xyl(b1-2)[Man(a1-3)][Man(a1-6)]Man(b1-4)GlcNAc(b1-4)[Fuc(a1-3)]GlcNAc
Procedure, shortened: as §1

[44] = biological target: Xyl(b1-4)Xyl(b1-4)Xyl(b1-4)Xyl(b1-4)Xyl
Procedure, shortened: as §1

B1: Malectin (Xenopus laevis), Q6INX3 (protein)
chain: SGLADKVIWAVNAGGESHVDVHGIHYRKDPLEGRVGRASDYGMKLPILRSNPEDQVLYQTERYNEDSFGYDIPIKEEGEYVLVLKFAEVYFAQSQQKVFDVRVNGHTVVKDLDIFDRVGHSTAHDEIIPISIKKGKLSVQGEVSTFTGKLSVEFVKGYYDNPKVCALFIMKGTADDVPMLQPHPGLE
In the case of B1, the “glycan array binding signal (z-score)” value [1] is reported as -0.076, the “glycan array binding signal (z-score)” value [2] is reported as -0.069 and the “glycan array binding signal (z-score)” value [3] is reported as -0.076. For the same binder, the “glycan array binding signal (z-score)” value [4] was -0.076, the “glycan array binding signal (z-score)” value [5] was -0.074 and the “glycan array binding signal (z-score)” value [6] was -0.076. The “glycan array binding signal (z-score)” value [7] was -0.076, the “glycan array binding signal (z-score)” value [8] was -0.076 and the “glycan array binding signal (z-score)” value [9] was -0.076. The “glycan array binding signal (z-score)” value [10] was -0.076, the “glycan array binding signal (z-score)” value [11] was -0.072 and the “glycan array binding signal (z-score)” value [12] was -0.076. For the same binder, the “glycan array binding signal (z-score)” value [13] was -0.076, the “glycan array binding signal (z-score)” value [14] was -0.076 and the “glycan array binding signal (z-score)” value [15] was -0.076. The “glycan array binding signal (z-score)” value [16] was -0.075, the “glycan array binding signal (z-score)” value [17] was -0.076 and the “glycan array binding signal (z-score)” value [18] was -0.076. For the same binder, the “glycan array binding signal (z-score)” value [19] was -0.076, the “glycan array binding signal (z-score)” value [20] was -0.073 and the “glycan array binding signal (z-score)” value [21] was -0.076. For the same binder, the “glycan array binding signal (z-score)” value [22] was -0.076, the “glycan array binding signal (z-score)” value [23] was -0.076 and the “glycan array binding signal (z-score)” value [24] was -0.076. For the same binder, the “glycan array binding signal (z-score)” value [25] was -0.076, the “glycan array binding signal (z-score)” value [26] was -0.072 and the “glycan array binding signal (z-score)” value [27] was -0.073. The “glycan array binding signal (z-score)” value [28] was -0.076, the “glycan array binding signal (z-score)” value [29] was -0.076 and the “glycan array binding signal (z-score)” value [30] was -0.076. For the same binder, the “glycan array binding signal (z-score)” value [31] was -0.075, the “glycan array binding signal (z-score)” value [32] was -0.073 and the “glycan array binding signal (z-score)” value [33] was -0.076. The “glycan array binding signal (z-score)” value [34] was -0.075, the “glycan array binding signal (z-score)” value [35] was -0.065 and the “glycan array binding signal (z-score)” value [36] was -0.074. The “glycan array binding signal (z-score)” value [37] was -0.073, the “glycan array binding signal (z-score)” value [38] was -0.067 and the “glycan array binding signal (z-score)” value [39] was -0.049. For the same binder, the “glycan array binding signal (z-score)” value [40] was -0.076, the “glycan array binding signal (z-score)” value [41] was -0.07 and the “glycan array binding signal (z-score)” value [42] was -0.075. The “glycan array binding signal (z-score)” value [43] was -0.076 and the “glycan array binding signal (z-score)” value [44] was -0.071.

From the supplement of paper PMC8728848
